B1: SEQ ID NO 14 (designed binder, not shown: large carriers; small tags and cut ends)
chain: VDNKFNKEPNVASMEILPLPNLNNQQMTAFIQSLDDDPSQSANLLAEAKKLNDAQAPK
notes: Z variant tested as fusion with ABD
B2: SEQ ID NO 12 (designed binder, not shown: large carriers; small tags and cut ends)
chain: VDNKFNKETVPAMREIASLPNLNTTQKVAFIRSLSDDPSQSANLLAEAKKLNDAQAPK
notes: as for B1
B3: SEQ ID NO 65 (designed binder)
chain: VDNKFNKETMAAMNEIVRLPNLNGWQRYAFIQSLRDDPSQSANLLAEAKKLNDAQAPK
notes: Z variant tested as fusion with ABD; not shown: It only anchors the fusion to coated HSA
B4: SEQ ID NO 52 (designed binder, not shown: large carriers; small tags and cut ends)
chain: VDNKFNKEAYTASLEIANLPNLNMHQYYAFIHSLLDDPSQSANLLAEAKKLNDAQAPK
notes: as for B1
B5: SEQ ID NO 68 (designed binder, not shown: large carriers; small tags and cut ends)
chain: VDNKFNKELYYAKLEIANLPNLNVHQWYAFIISLEDDPSQSANLLAEAKKLNDAQAPK
notes: as for B1
B6: SEQ ID NO 53 (designed binder, not shown: large carriers; small tags and cut ends)
chain: VDNKFNKEMRWAALEIAALPNLNVHQYYAFIRSLLDDPSQSANLLAEAKKLNDAQAPK
notes: as for B1
B7: SEQ ID NO 47 (designed binder, not shown: large carriers; small tags and cut ends)
chain: VDNKFNKEVVGAMLEIARLPNLNRGQVNAFIWSLADDPSQSANLLAEAKKLNDAQAPK
notes: as for B1
B8: SEQ ID NO 2 (designed binder, not shown: large carriers; small tags and cut ends)
chain: VDNKFNKEAAWAPFEIQHLPNLNHPQNDAFIDSLTDDPSQSANLLAEAKKLNDAQAPK
notes: as for B1
B9: SEQ ID NO 60 (designed binder)
chain: VDNKFNKETFHAIGEIGSLPNLNDMQFSAFIISLWDDPSQSANLLAEAKKLNDAQAPK
notes: as for B3
B10: SEQ ID NO 6 (designed binder, not shown: large carriers; small tags and cut ends)
chain: VDNKFNKESEGAMHEIVRLPNLNAWQRQAFIVSLWDDPSQSANLLAEAKKLNDAQAPK
notes: as for B1
B11: SEQ ID NO 24 (designed binder, not shown: large carriers; small tags and cut ends)
chain: VDNKFNKEGRPAGLEIMCLPNLNTAQMVAFIRSLTDDPSQSANLLAEAKKLNDAQAPK
notes: as for B1
B12: SEQ ID NO 31 (designed binder, not shown: large carriers; small tags and cut ends)
chain: VDNKFNKEMHIALQEIYALPNLNIAQSVAFIRSLVDDPSQSANLLAEAKKLNDAQAPK
notes: as for B1
B13: SEQ ID NO 51 (designed binder, not shown: large carriers; small tags and cut ends)
chain: VDNKFNKETEWAIAEIIGLPNLNLHQYYAFIMSLRDDPSQSANLLAEAKKLNDAQAPK
notes: as for B1
B14: SEQ ID NO 10 (designed binder, not shown: large carriers; small tags and cut ends)
chain: VDNKFNKECSMAPREIWALPNLNREQAVAFIRSLCDDPSQSANLLAEAKKLNDAQAPK
notes: as for B1
B15: SEQ ID NO 13 (designed binder, not shown: large carriers; small tags and cut ends)
chain: VDNKFNKECAYAPREIWRLPNLNHQQGVAFIRSLCDDPSQSANLLAEAKKLNDAQAPK
notes: as for B1
B16: SEQ ID NO 55 (designed binder, not shown: large carriers; small tags and cut ends)
chain: VDNKFNKEWKAAAREIGSLPNLNLHQYYAFIVSLQDDPSQSANLLAEAKKLNDAQAPK
notes: as for B1
B17: SEQ ID NO 28 (designed binder, not shown: large carriers; small tags and cut ends)
chain: VDNKFNKESNKAPCEIQDLPNLNIDQCIAFIRSLRDDPSQSANLLAEAKKLNDAQAPK
notes: as for B1
B18: SEQ ID NO 9 (designed binder, not shown: large carriers; small tags and cut ends)
chain: VDNKFNKEGRTAACEIQDLPNLNLDQCWAFIKSLLDDPSQSANLLAEAKKLNDAQAPK
notes: as for B1
B19: SEQ ID NO 37 (designed binder, not shown: large carriers; small tags and cut ends)
chain: VDNKFNKEGRGARMEIVCLPNLNWRQTVAFIRSLQDDPSQSANLLAEAKKLNDAQAPK
notes: as for B1
B20: SEQ ID NO 18 (designed binder, not shown: large carriers; small tags and cut ends)
chain: VDNKFNKEFVYAIAEIMNLPNLNQSQQLAFIYSLRDDPSQSANLLAEAKKLNDAQAPK
notes: as for B1
B21: SEQ ID NO 54 (designed binder, not shown: large carriers; small tags and cut ends)
chain: VDNKFNKEFHGAIREIHLLPNLNLQQRMAFIISLTDDPSQSANLLAEAKKLNDAQAPK
notes: as for B1
B22: SEQ ID NO 39 (designed binder, not shown: large carriers; small tags and cut ends)
chain: VDNKFNKEVTVAGVEIGQLPNLNLHQYYAFIRSLLDDPSQSANLLAEAKKLNDAQAPK
notes: as for B1
B23: SEQ ID NO 11 (designed binder, not shown: large carriers; small tags and cut ends)
chain: VDNKFNKECRTAPREIFSLPNLNIGQQWAFIRSLCDDPSQSANLLAEAKKLNDAQAPK
notes: as for B1
B24: SEQ ID NO 27 (designed binder, not shown: large carriers; small tags and cut ends)
chain: VDNKFNKEIVYAPREIFHLPNLNILQQIAFIRSLLDDPSQSANLLAEAKKLNDAQAPK
notes: as for B1
B25: SEQ ID NO 25 (designed binder, not shown: large carriers; small tags and cut ends)
chain: VDNKFNKESAHAIGEIANLPNLNGGQLRAFILSLWDDPSQSANLLAEAKKLNDAQAPK
notes: as for B1
B26: SEQ ID NO 63 (designed binder)
chain: VDNKFNKEAPGATSEINILPNLNWRQIMAFIVSLRDDPSQSANLLAEAKKLNDAQAPK
notes: as for B3
B27: SEQ ID NO 15 (designed binder, not shown: large carriers; small tags and cut ends)
chain: VDNKFNKERVAAACEIESLPNLNLQQCWAFIRSLMDDPSQSANLLAEAKKLNDAQAPK
notes: as for B1
B28: SEQ ID NO 22 (designed binder, not shown: large carriers; small tags and cut ends)
chain: VDNKFNKERTVASCEIEHLPNLNLDQCWAFIDSLRDDPSQSANLLAEAKKLNDAQAPK
notes: as for B1
B29: SEQ ID NO 50 (designed binder, not shown: large carriers; small tags and cut ends)
chain: VDNKFNKEPLAAVMEIVQLPNLNMHQYYAFIRSLNDDPSQSANLLAEAKKLNDAQAPK
notes: as for B1
B30: SEQ ID NO 36 (designed binder, not shown: large carriers; small tags and cut ends)
chain: VDNKFNKECWMAPKEIYRLPNLNDWQRSAFIRSLCDDPSQSANLLAEAKKLNDAQAPK
notes: as for B1
B31: SEQ ID NO 70 (designed binder, not shown: large carriers; small tags and cut ends)
chain: VDNKFNKEWEWASKEIVILPNLNTQQRAAFIRSLWDDPSQSANLLAEAKKLNDAQAPK
notes: as for B1
B32: SEQ ID NO 34 (designed binder, not shown: large carriers; small tags and cut ends)
chain: VDNKFNKESMSAALEITRLPNLNVHQYYAFITSLRDDPSQSANLLAEAKKLNDAQAPK
notes: as for B1
B33: SEQ ID NO 67 (designed binder, not shown: large carriers; small tags and cut ends)
chain: VDNKFNKEWHDALREIHRLPNLNVYQSLAFIRSLVDDPSQSANLLAEAKKLNDAQAPK
notes: as for B1
B34: SEQ ID NO 42 (designed binder, not shown: large carriers; small tags and cut ends)
chain: VDNKFNKEGHMAVREIHGLPNLNVAQRMAFIRSLVDDPSQSANLLAEAKKLNDAQAPK
notes: as for B1
B35: SEQ ID NO 73 (designed binder, not shown: large carriers; small tags and cut ends)
chain: VDNKFNKETAQAPLEIALLPNLNWPQKVAFIRSLADDPSQSANLLAEAKKLNDAQAPK
notes: as for B1
B36: SEQ ID NO 3 (designed binder, not shown: large carriers; small tags and cut ends)
chain: VDNKFNKEMFGAVGEIGALPNLNDRQLRAFILSLWDDPSQSANLLAEAKKLNDAQAPK
notes: as for B1
B37: SEQ ID NO 74 (designed binder, not shown: large carriers; small tags and cut ends)
chain: VDNKFNKEVFWAAGEIGILPNLNHMQYRAFILSLWDDPSQSANLLAEAKKLNDAQAPK
notes: as for B1
B38: SEQ ID NO 69 (designed binder, not shown: large carriers; small tags and cut ends)
chain: VDNKFNKEVRFAIGEIGGLPNLNDRQLRAFILSLWDDPSQSANLLAEAKKLNDAQAPK
notes: as for B1
B39: SEQ ID NO 59 (designed binder)
chain: VDNKFNKEMFSAIGEIGNLPNLNDRQLAAFILSLFDDPSQSANLLAEAKKLNDAQAPK
notes: as for B3
B40: SEQ ID NO 5 (designed binder, not shown: large carriers; small tags and cut ends)
chain: VDNKFNKELGWAIGEIGTLPNLNHQQFRAFILSLWDDPSQSANLLAEAKKLNDAQAPK
notes: as for B1
B41: SEQ ID NO 21 (designed binder, not shown: large carriers; small tags and cut ends)
chain: VDNKFNKEHMEADCEIEHLPNLNRKQCWAFIKSLRDDPSQSANLLAEAKKLNDAQAPK
notes: as for B1
B42: SEQ ID NO 23 (designed binder, not shown: large carriers; small tags and cut ends)
chain: VDNKFNKESAHAVGEIGSLPNLNLVQIGAFIKSLWDDPSQSANLLAEAKKLNDAQAPK
notes: as for B1
B43: SEQ ID NO 16 (designed binder, not shown: large carriers; small tags and cut ends)
chain: VDNKFNKECFMAPQEINKLPNLNAWQKYAFIWSLCDDPSQSANLLAEAKKLNDAQAPK
notes: as for B1
B44: SEQ ID NO 29 (designed binder, not shown: large carriers; small tags and cut ends)
chain: VDNKFNKEFHGALREIWKLPNLNVRQAMAFIRSLIDDPSQSANLLAEAKKLNDAQAPK
notes: as for B1
B45: SEQ ID NO 64 (designed binder)
chain: VDNKFNKEFIDAPREILRLPNLNMTQQMAFIRSLADDPSQSANLLAEAKKLNDAQAPK
notes: as for B3
B46: SEQ ID NO 35 (designed binder, not shown: large carriers; small tags and cut ends)
chain: VDNKFNKEFVSAPREIHGLPNLNVTQRMAFIRSLLDDPSQSANLLAEAKKLNDAQAPK
notes: as for B1
B47: SEQ ID NO 33 (designed binder, not shown: large carriers; small tags and cut ends)
chain: VDNKFNKESPGALSEIMALPNLNVHQYYAFIRSLLDDPSQSANLLAEAKKLNDAQAPK
notes: as for B1
B48: SEQ ID NO 66 (designed binder, not shown: large carriers; small tags and cut ends)
chain: VDNKFNKEAHSALREILKLPNLNIEQWQAFIRSLADDPSQSANLLAEAKKLNDAQAPK
notes: as for B1

Each binder was assayed against T1, biotin-conjugated, recombinant TNF-α produced in E. coli (human, UniProt P01375 77-233, biotin-conjugated (sites not given)) (assay: ELISA: Z-ABD fusion captured on HSA, biotinylated TNF-α 1 µg/ml, signal above threshold).
T1 construct: Research Diagnostics Inc, cat no RDI-301X; also called Biotinylated TNF-α

Binder | binding result
B1 | binds
B2 | binds
B3 | binds
B4 | binds
B5 | binds
B6 | binds
B7 | binds
B8 | binds
B9 | binds
B10 | binds
B11 | binds
B12 | binds
B13 | binds
B14 | binds
B15 | binds
B16 | binds
B17 | binds
B18 | binds
B19 | binds
B20 | binds
B21 | binds
B22 | binds
B23 | binds
B24 | binds

Binder | binding result
B25 | binds
B26 | binds
B27 | binds
B28 | binds
B29 | binds
B30 | binds
B31 | binds
B32 | binds
B33 | binds
B34 | binds
B35 | binds
B36 | binds
B37 | binds
B38 | binds
B39 | binds
B40 | binds
B41 | binds
B42 | binds
B43 | binds
B44 | binds
B45 | binds
B46 | binds
B47 | binds
B48 | binds

From patent US20090306572A1 (Affibody, published 2009)
